According to PubChem BioAssay AID588579 (National Center for Advancing Translational Sciences (NCATS), 2011):
“And” between values parts separate entries of the source, which are not always exact repeats. Equal entries are not always repeated. About 2,200 (0.55%) of roughly 400,000 compounds were called active. Inconclusive means that the source gave no clear call. Such entries were picked first, then a sample of the others. The call rests on the fitted dose curve; in most records, active means well fitted inhibition curve with a large enough effect; inconclusive means small, poorly fitted or top-dose-only effect, or another doubt; inactive means no such curve, though single readings can be large or run the other way. Potencies of inconclusive entries are doubtful fits and often do not repeat. The source holds several records for some structures; these can differ, active in one and inactive in another.

Target: DNA polymerase kappa (Homo sapiens) (UniProt Q9UBT6)
Assay: qHTS for Inhibitors of Polymerase Kappa
Conditions: purified Pol kappa, fluorescent DNA synthesis assay, 10 min; series mostly up to 107 µM
In short: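 Kinetic fluorescence readout at 0 and 10 min followed reaction start with substrate at 50 nM final. Beforehand, enzyme (10 nM Pol kappa) stood 15 min with compound at room temperature; buffer-only wells were negative controls.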
On the % scale 0 is the no-effect control and ±100 the full control effect; potency means the concentration at half of the fitted maximal effect; tags describe the fitted curve by direction and shape.

Chain of UniProt Q9UBT6 (Q9UBT6 whole entry, looked up): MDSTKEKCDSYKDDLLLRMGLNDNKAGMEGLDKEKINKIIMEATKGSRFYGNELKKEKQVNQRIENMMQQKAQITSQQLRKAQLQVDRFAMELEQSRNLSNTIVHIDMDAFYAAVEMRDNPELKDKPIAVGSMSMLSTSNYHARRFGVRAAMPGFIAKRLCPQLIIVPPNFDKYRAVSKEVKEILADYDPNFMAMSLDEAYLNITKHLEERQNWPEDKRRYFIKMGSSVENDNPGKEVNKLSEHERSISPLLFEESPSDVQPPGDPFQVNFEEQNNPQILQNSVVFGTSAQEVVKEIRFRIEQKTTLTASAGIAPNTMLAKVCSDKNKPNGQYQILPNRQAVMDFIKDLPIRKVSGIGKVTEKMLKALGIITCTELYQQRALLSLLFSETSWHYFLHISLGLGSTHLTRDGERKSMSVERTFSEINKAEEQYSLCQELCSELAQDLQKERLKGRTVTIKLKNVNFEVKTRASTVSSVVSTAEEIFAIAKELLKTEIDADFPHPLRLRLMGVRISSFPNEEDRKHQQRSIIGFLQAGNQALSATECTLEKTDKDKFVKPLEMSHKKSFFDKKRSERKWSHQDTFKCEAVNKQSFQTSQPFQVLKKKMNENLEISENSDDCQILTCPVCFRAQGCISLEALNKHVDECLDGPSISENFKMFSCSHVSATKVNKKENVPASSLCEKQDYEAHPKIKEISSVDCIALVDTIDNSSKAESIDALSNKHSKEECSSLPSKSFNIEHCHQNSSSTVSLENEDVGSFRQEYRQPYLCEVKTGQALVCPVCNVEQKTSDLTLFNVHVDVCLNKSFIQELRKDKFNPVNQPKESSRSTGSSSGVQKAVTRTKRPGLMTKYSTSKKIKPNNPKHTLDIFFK

Compound	Potency	activity, negative = inhibition
CCCC1OC2CC3C4CCC5=CC(=O)C=CC5(C)C4C(O)CC3(C)[C@]2(C(=O)CO)O1 (stereo partly drawn)	inconclusive: 35.5 µM [inhibitor, single point]	–
O=c1oc2ccccc2c(Nc2cc3ccccc3cc2O)c1[N+](=O)[O-]	inconclusive: 89.1 µM [inhibitor, partial curve, poor fit]	–
Cc1cccc(CNC(=O)CN2CC(C)Sc3ccccc32)c1 (stereo not drawn)	inactive	–
CC(/C=N/NC(=O)CSc1nc2ccccc2n1C)=C\c1ccco1	inconclusive: 79.4 µM [inhibitor, partial curve, poor fit]	–
CC(=O)Nc1ccc(S(=O)(=O)N(C)c2ccc(OCCOc3cccc(C)c3)cc2)cc1	inconclusive: 89.1 µM [inhibitor, single point]	–
COc1ccc(C2(C#N)CCC(C(=O)O)CC2)cc1OC1CCCC1 (stereo not drawn)	–	inactive: 1.33% [at 19.4 µM]
CCOC1=C/C(=C/c2c(N)n3nc(-c4ccccc4)sc3nc2=O)C=CC1=O	inconclusive: 89.1 µM [inhibitor, single point]	–
CN1CCCC1CCNc1ccc2c(=O)c3ccccc3oc2c1 (stereo not drawn)	inactive	–
NC(=O)c1ccc[n+]([C@@H]2OC(COP(=O)([O-])OP(=O)(O)OCC3OC(n4cnc5c(N)ncnc54)C(OP(=O)(O)O)C3O)C(O)C2O)c1 (stereo partly drawn)	inconclusive: 39.8 µM [inhibitor, single point]	–
O=c1ccc2cc(S(=O)(=O)NCc3ccc(Cl)cc3)ccc2[nH]1	inconclusive: 100 µM [inhibitor, single point]	–
CCN(CC)c1ccc2cc(-c3nc(-c4ccccc4)no3)c(=O)oc2c1	inactive	–
CCOC(=O)c1cc2c(=O)n3ccccc3nc2n(Cc2ccco2)c1=NC(=O)c1ccc(OC)cc1	inconclusive: 63.1 µM [inhibitor, partial curve, poor fit]	–
O=c1ccc2cc(O)c(O)cc2o1	active: 2.67 µM and active: 3.55 µM	–
Cc1ccc(NC(=O)CCCN2C(=O)/C(=C/C=C/c3ccccc3)SC2=S)cc1	inconclusive: 14.1 µM [inhibitor, partial curve, poor fit]	–
CC(=O)Nc1ccc2nsnc2c1	inconclusive: 89.1 µM [inhibitor, single point]	–
O=C(Nc1cccnc1Cl)c1ccc(=O)oc1	active: 44.7 µM	–
COc1ccc(-c2cc(=O)oc3c(O)c(O)ccc23)cc1	inconclusive: 28.2 µM [inhibitor, full curve]	–
CCCCC1=C(C(=O)OCC)C(C(=O)OCC)Oc2ccccc21 (stereo not drawn)	inconclusive: 50.1 µM [inhibitor, partial curve, poor fit]	–
CCC(C)(C(=O)Nc1c(C)cccc1C)N(C)C(=O)c1ccc2ccccc2n1 (stereo not drawn)	inconclusive: 100 µM [inhibitor, single point]	–
NC(=O)CSc1nc2scc(-c3ccco3)c2c(=O)n1-c1ccccc1	active: 44.7 µM	–
C#CCNC(=O)C1=C[C@H](c2ccc(C#C)cc2)C[C@H](OCc2ccc(CO)cc2)O1	inconclusive: 89.1 µM [inhibitor, single point]	–
COC/C=C/C1=CC2=CC(=O)C(C)(OC(=O)c3cnc4ccccc4n3)C(=O)C2=CN1Cc1ccccc1 (stereo not drawn)	inactive	–

Compound	Potency	activity, negative = inhibition
CC1=C(C(=O)O)N2C(=O)C(NC(=O)c3ccc(F)cc3)C2SC1 (stereo not drawn)	inactive	–
CC(C)CN1CCC(=O)N(CCSc2ccccc2)CC1	inconclusive: 89.1 µM [inhibitor, single point]	–
O=C(CN1C(=O)/C(=C/c2ccco2)SC1=S)Nc1ccc(O)c(C(=O)O)c1	inconclusive: 0.708 µM [inhibitor, full curve, poor fit]	–
N#Cc1c(SCC(=O)Nc2nc3ccccc3s2)sc2c(O)cc(=O)[nH]c12	active: 12.6 µM	–
CO[C@@]1(NC(=O)Cc2cccs2)C(=O)N2C(C(=O)O)=C(COC(N)=O)CSC21 (stereo partly drawn)	active: 31.6 µM	–
C[C@@](N)(Cc1ccc(O)c(O)c1)C(=O)O	active: 3.55 µM	–
N#Cc1cc2c(=O)n3ccccc3nc2n(Cc2ccco2)c1=NC(=O)c1ccco1	inconclusive: 100 µM [inhibitor, single point]	–
COCCn1c(=NC(=O)c2sc3ccccc3c2Cl)sc2cc(S(N)(=O)=O)ccc21	inactive	–
CCc1ccc(NC(=O)CN2C(=O)CC(c3ccccc3)Sc3ccccc32)cc1 (stereo not drawn)	inactive	–
O=[N+]([O-])c1ccc2c(c1)C=C/C2=C\c1ccc(C=S)cc1	inactive	–
O=C(NNC(=O)c1ccccc1Br)c1ccc2nc[nH]c2c1	inconclusive: 89.1 µM [inhibitor, single point]	–
O=P(O)(O)CP(=O)(O)O	–	inactive: 0.665% [at 19.4 µM]
CCN(CC)C(=O)CC(c1cc(OC)c(OC)c(OC)c1)c1c(OC)cc(OC)c2c(-c3ccccc3)cc(=O)oc12 (stereo not drawn)	active: 79.4 µM	–
Nc1ccc(-c2c3ccc(=O)cc-3oc3cc(O)ccc23)cc1C(=O)O	active: 79.4 µM	–
COc1[nH]c(/N=C/c2ccccc2)c(C#N)c1C#N	inconclusive: 50.1 µM [inhibitor, partial curve, poor fit]	–
CCC(=O)OC1(C)C(=O)C=C2C=C(c3ccc(C#N)cc3)OC=C2C1=O (stereo not drawn)	inconclusive: 79.4 µM [inhibitor, partial curve, poor fit]	–
CCC(=O)OCC(=O)C1(OC(=O)CC)C(C)CC2C3C(Cl)CC4=CC(=O)C=C[C@@]4(C)C3C(O)C[C@@]21C (stereo partly drawn)	inconclusive: 8.91 µM [inhibitor, full curve]	–
O=C(N/N=C/c1ccc([N+](=O)[O-])o1)c1cc(-c2ccncc2)nc2ccccc12	inconclusive: 89.1 µM [inhibitor, single point]	–
O=C(CCNC(=O)c1ccccc1)NN=Cc1ccc(Br)o1	inconclusive: 89.1 µM [inhibitor, single point]	–
Oc1ccc(-c2nc(-c3ccc(O)c(O)c3)cs2)cc1	inconclusive: 50.1 µM [inhibitor, partial curve, poor fit]	–
Cc1cc(NC(=O)c2cc(S(=O)(=O)N3CCCCC3)ccc2C)no1	inconclusive: 89.1 µM [inhibitor, single point]	–
